# Some compounds were tested as several samples or in several runs, with calls that do not always agree.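 Note: values are percent growth. 100 is the growth of untreated cells, values between 100 and 0 indicate rising inhibition; between -100 and 0 indicates cell death.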 A number of entries come with more than one value. The list is limited to them. Rule for the calls: active = growth percent below 10; inactive = the rest. There may be further records. The screen tested this drug many times, at its own concentration, as given; one value stands for one run. Additions like (4×) count equal records among those shown.
# System: HCT-116 colon
# Test: NCI-60 one-dose screen, 48 h (100 = growth as untreated, 0 = no growth, -100 = all killed)
smiles,measurement,setting,value
COc1cccc2c1C(=O)c1c(O)c3c(c(O)c1C2=O)C[C@@](O)(C(=O)CO)C[C@@H]3OC1CC(N)C(O)C(C)O1 (some centres not stated),growth,"0.25 µM, runs of 2014","inactive: 24 (2×), 23.7, 23.9 (5×), 16.6, 13.8, 28.9, 18.7, 16.2, 19.3, 14.7, 17.5, 16.8, 21.3 (2×), 35.2 (2×), 19.5, 23 (2×), 10.4, 27.7, 27.4, 22.8 (2×), 26.3 (2×), 29.5, 29, 25.8, 24.6 (4×), 37.2, 23.2 (2×), 27.8 (2×), 29.6, 23.8, 26.7, 25.1 (2×), 17.9, 17.3, 27.9, 25.9 (2×), 30.3, 28.1, 24.5 (3×), 24.8, 20.8, 23.4, 26.4, 20, 34.2, 19.8, 33.6, 21.8, 25, 34.6, 35.4, 27.6, 21.6, 31.9, 31.8, 19.7, 20.4%"
same,growth,"0.25 µM, runs of 2015","inactive: 25.4, 22.5 (2×), 17.6 (2×), 20.1 (4×), 18, 29.1, 43.9, 23.1 (2×), 22 (2×), 24.1 (2×), 13.3, 18.2, 20 (2×), 21.4, 62.8, 53.2, 17.8, 17.4, 21.9 (2×), 14.1, 26, 19.9 (3×), 15, 12, 11, 16.3, 21.3, 24.2, 15.5, 16.2 (2×), 15.1, 19.4, 17.9, 25.2, 16.1, 13.7, 18.8 (2×), 20.3, 19.1, 16.5 (2×), 21, 17.3, 17, 22.2 (4×), 18.5, 30.5, 32.2 (2×), 23.2, 26.4, 21.6 (2×), 19 (2×), 16.6, 23.7, 20.6, 14, 26.1, 27.1, 16.7, 13, 25.1, 20.8, 23.9, 24.9, 27.3, 22.3, 24.7% and active: 8.45%"
same,growth,"0.25 µM, runs of 2016","inactive: 20.2, 16.6, 20.4, 28.5 (2×), 34.4, 18.7 (2×), 25, 22.5, 23.8, 27.3, 23.4, 18, 10.4, 11, 11.6, 11.5, 18.9 (2×), 20.7 (3×), 11.2, 13.8, 13.3, 17.9, 14.6, 17.8, 13.7, 16.4, 16.3, 15.7, 20.9 (2×), 19.9, 22.1, 15.9, 19.1, 20, 18.4, 18.2, 19.8, 37.9, 22.6 (2×), 22.9, 23.2, 40.8, 38.4, 22.8, 21.4, 30.9, 35.8 (2×), 40.6, 20.3 (2×), 22.3, 25.9, 28.9, 24.1, 29.5, 25.2, 26.4, 29.6, 29.4, 24.7, 30.6, 31.8 (3×), 25.8, 30.3, 26.7, 26.3, 21.5, 30 (2×), 31.9 (2×), 24.9, 32.3%"
same,growth,"0.25 µM, runs of 2017","inactive: 26.1, 28.9, 28.2, 16, 19.9, 19.5, 26.5, 19.3, 19.2 (2×), 22.8, 25.1, 16.9 (2×), 18.4, 19.6, 15.2 (2×), 14 (2×), 14.9, 17.5, 15.3 (2×), 20.5 (3×), 22 (4×), 15, 16.2 (3×), 20.1, 21.1 (3×), 15.4, 19.1, 24.3, 22.2, 21.8 (3×), 21.9 (2×), 23.1, 22.3, 18.8, 17.4 (2×), 20.7, 17.7, 18.7, 17.3, 19.4, 16.6, 16.7, 12.4, 13.8, 23, 25.5, 31.3 (2×), 23.3, 20.2, 20.3, 27.8, 18.6, 20.9, 20.8, 30, 26.2, 24.8, 27.3, 21.2, 21, 46.8, 40.8%"
same,growth,"0.25 µM, runs of 2018","inactive: 26.2 (2×), 25 (2×), 20.1 (2×), 21.4, 29.7, 24.5 (2×), 21, 21.5 (2×), 26.7, 20.4 (2×), 30, 25.1, 24.1, 25.8 (2×), 22.8, 24.6, 26.1 (2×), 21.7 (3×), 25.4, 25.2, 23.2, 22.3, 42.4, 22.1, 21.6, 20, 24.2, 22.2, 38.2, 21.8, 19.6, 23.3, 19.7, 25.5, 19.9, 23.1 (2×), 23.7 (2×), 26.3, 17, 22.5, 11.2, 16.7%"
same,growth,"0.25 µM, runs of 2019","inactive: 19 (2×), 16.5, 19.6, 14.5, 20.5 (2×), 23.8, 23.4 (2×), 25, 18.1 (3×), 20.6 (2×), 18.4 (2×), 21.2, 19.7, 30.3, 18.6, 14.1, 21.6 (3×), 27.7, 20.8, 26.5, 23.3, 18.5, 26.4, 22.8, 21.8 (2×), 21 (2×), 23.9, 20.1, 21.3, 19.8, 22.3, 21.9 (3×), 22.9 (2×), 20.9, 24.9, 25.1, 23%"
same,growth,"0.25 µM, runs of 2020","inactive: 18.4, 22.3, 23.5, 23.7, 22.8, 20.9, 22.4, 23.2 (2×), 22.5, 20.1, 25.6, 21.9, 36.7, 23.4 (2×), 23.1, 29.5, 26, 27.9, 30.3, 22.6, 28.4, 24.7, 26.2, 26.5%"
same,growth,"0.25 µM, runs of 2021","inactive: 26.6, 31.1, 24.2 (2×), 28.5 (2×), 25.8 (3×), 26.7 (2×), 21, 25.1, 20.7 (2×), 29.8, 22.3, 21.4, 24.7, 28.1, 27.7, 23, 22.8 (2×), 21.8, 21.1, 22.4 (2×), 23.2, 27.1, 25.9, 34.1, 31.7, 26, 26.1, 24.9, 26.5, 23.4, 33.3, 23.3, 22, 27.4 (2×), 24.6, 15.9, 23.5, 30.9, 20.6, 21.7%"
same,growth,"0.25 µM, runs of 2022","active: -1.35%, -3.94%, -14.6% and inactive: 25.9, 30.5, 18.8, 12.2, 19.8, 23.9 (2×), 32.4, 29.8, 30.9, 37.3, 28.4, 32, 21.9, 18, 45.1, 55.8, 24.1, 48.4, 40.4, 54.3, 26, 21, 24, 21.5%"
same,growth,"25 µM, runs of 1991","active: 3.93, 9.77, 7.61, -0.602, 2.22, 0.615, -18.9, -33.4, 3, 2.44, 0.0457, -21.5, 4.3, -9.38, -21.9, -41.4, -16.9%"
same,growth,"25 µM, runs of 1992","active: -26.4 (2×), -23.4 (2×), -25.9, -16.9, -16.2 (2×), -18.5, 4.06, 0.0823, 2.39, -11.8, -19, -40.4, -36.6, -9.85, -16.4, -31 (2×), -27.7, -0.403, 2.08, 3.95, 2.22, 3.81 (2×), -15.1, -29.6, -10.7, -15, -59.6, -79.7, -18.6, -21.9, -5.84, -24.5, -33.5, -3.23, -23.1, 0.0321, 2.21, 4.83, -12.3, 0.301, -40.2, 0.893, -71.7, -59.5, -37, -21.1, -20, -30.3, 1.36, 5.97, 3.87, -5.7, 0.958, -16.1, -21.5, -32.3, -17.9, -18.3, 0.433, -10.6, 1.69, 1.48 (2×), -30.4, 1.63, -0.284, 0.682, -100, -25.2, -29.5, -11.7, -23.2, -22.5, 3.16, 4.35, -7.93, -27.6, -2.84, -13.1, -1.59, -0.714, 0.751, -28.8, -40.9, -58.4, 1.01, -9.68, 4.11, -46.2, -45.6, 3.94, 1.64, -35.9, -33.7, 4.61, 3.69, -29.4, -34.3, -8.27, 5.48, 4.66, -34.9, -8.16, -43.1, -16.5, 4.96, -53.3, 2.38%"
same,growth,"25 µM, runs of 1993","active: 0.479, -2.73, -26, 9.25, 2.56, -23.1, 8.04, -1.15, -47.8, 1.02, -23, -13, 1.33, -0.962, -40.1, -1.41, -31.9, -14.7, 4.7, 5.77, -0.938, -15, 2, -6.03, -13.1, -17.1, -4.53, -16.6, -34.4, -20.4, -0.621, 6.96, -71.6, -9.69, -25.3, 1.29, -39.8, 4.77, -18.8, 1.5, -41.8, -6.5, -44.1, -4.6, 6.35, -27.2, -29%"

# Reference: PubChem BioAssay (NCI)
